Laboratory results reported in the supplement of paper PMC7125110.
± gives the standard error. Variants at the floor of the assay are shown more often than the library holds them.

B1: glmS ribozyme (parent)
chain: AUAAAAGCGCCAGAACUACAGAAAUGUAGUUGACGAGGAGGAGGUUUAUCGAAUUUUCGGCGGAUGCCUCCAAA

Assays:
Settings in all cases: with glucosamine-6-phosphate
[1] = variants of: B1; assay: self-cleavage kobs at 40 uM GlcN6P; higher = faster cleavage; RNA array
Procedure, shortened: (§1)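 Tracking of barcoded ribozyme variants used a hybridised Cy3 probe at 37 °C, after in situ transcription by E. coli RNA polymerase on sequenced MiSeq chips. The flowed solution held 40 μM to 10 mM glucosamine-6-phosphate in HEPES/KCl/Mg(OAc)2 buffer, and imaging ran over ~14 h. kobs was taken from exponential decay fits of normalised per-tile medians, and kcat and KM from weighted Michaelis–Menten fits.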

[2] = variants of: B1; assay: self-cleavage kobs at 10000 uM GlcN6P; higher = faster cleavage; RNA array
Procedure, shortened: as §1

[3] = variants of: B1; assay: self-cleavage kobs at 640 uM GlcN6P; higher = faster cleavage; RNA array
Procedure, shortened: as §1

[4] = variants of: B1; assay: self-cleavage kobs at 2500 uM GlcN6P; higher = faster cleavage; RNA array
Procedure, shortened: as §1

[5] = variants of: B1; assay: self-cleavage kobs at 160 uM GlcN6P; higher = faster cleavage; RNA array
Procedure, shortened: as §1

Variant	self-cleavage kobs at 40 uM GlcN6P [1]	self-cleavage kobs at 10000 uM GlcN6P [2]	self-cleavage kobs at 640 uM GlcN6P [3]	self-cleavage kobs at 2500 uM GlcN6P [4]	self-cleavage kobs at 160 uM GlcN6P [5]
U31C G38A A42C G60C	< 1e-05 s⁻¹	< 1e-05 s⁻¹	–	–	–
U31C G38C G43A	< 1e-05 s⁻¹	< 1e-05 s⁻¹	–	–	–
U31C G40C A53G	< 1e-05 s⁻¹	–	–	–	–
U31C G41C C58A C70A	< 1e-05 s⁻¹	< 1e-05 s⁻¹	–	–	–
U31C G51A U65C	< 1e-05 s⁻¹	–	< 1e-05 s⁻¹	–	–
U31C G59U	< 1e-05 s⁻¹	–	< 1e-05 s⁻¹	–	–
U31G A33U	< 1e-05 s⁻¹	7.23e-05 ± 1.2e-05 s⁻¹	–	3.73e-05 ± 1.2e-05 s⁻¹	–
U31G A42C C71A	< 1e-05 s⁻¹	–	< 1e-05 s⁻¹	< 1e-05 s⁻¹	–
U31G C71U	0.000277 ± 3.1e-05 s⁻¹	0.0107 ± 0.0016 s⁻¹	0.00235 ± 0.00045 s⁻¹	0.00836 ± 0.0019 s⁻¹	0.000479 ± 8.2e-05 s⁻¹
U31G G38A	< 1e-05 s⁻¹	< 1e-05 s⁻¹	–	–	–
U31G G43A	< 1e-05 s⁻¹	–	–	–	–
U31G G44U	< 1e-05 s⁻¹	0.000129 ± 3e-05 s⁻¹	–	4.98e-05 ± 1.3e-05 s⁻¹	–
U31G G59A	< 1e-05 s⁻¹	–	–	–	–
U31G G60A	< 1e-05 s⁻¹	–	–	–	–
U31G G62U	< 1e-05 s⁻¹	< 1e-05 s⁻¹	< 1e-05 s⁻¹	< 1e-05 s⁻¹	< 1e-05 s⁻¹
U31G U45A	0.000531 ± 0.00011 s⁻¹	0.0291 ± 0.0063 s⁻¹	0.00653 ± 0.0013 s⁻¹	0.0105 ± 0.0037 s⁻¹	0.00206 ± 0.0004 s⁻¹
U31G U49G	< 1e-05 s⁻¹	0.000157 ± 1.4e-05 s⁻¹	4.38e-05 ± 1.9e-05 s⁻¹	0.000102 ± 1.4e-05 s⁻¹	–
U31G U57G	< 1e-05 s⁻¹	–	–	–	–
G32A A33C C68G C71G	5.72e-05 ± 1.6e-05 s⁻¹	–	–	–	–
G32A C50A U55G C71G	< 1e-05 s⁻¹	–	–	–	–
G32A C50G G51U	< 1e-05 s⁻¹	–	–	–	–
G32A G35C C67G	< 1e-05 s⁻¹	< 1e-05 s⁻¹	–	–	–

Variant	self-cleavage kobs at 40 uM GlcN6P [1]	self-cleavage kobs at 10000 uM GlcN6P [2]	self-cleavage kobs at 640 uM GlcN6P [3]	self-cleavage kobs at 2500 uM GlcN6P [4]	self-cleavage kobs at 160 uM GlcN6P [5]
G32A G37A	< 1e-05 s⁻¹	–	–	–	–
G32A G38A A52C U54A	< 1e-05 s⁻¹	< 1e-05 s⁻¹	–	–	–
G32A G43A	< 1e-05 s⁻¹	–	< 1e-05 s⁻¹	< 1e-05 s⁻¹	< 1e-05 s⁻¹
G32A G44A	< 1e-05 s⁻¹	–	–	–	< 1e-05 s⁻¹
G32A G44C	< 1e-05 s⁻¹	–	< 1e-05 s⁻¹	–	< 1e-05 s⁻¹
G32C A33G	< 1e-05 s⁻¹	–	–	< 1e-05 s⁻¹	< 1e-05 s⁻¹
G32C A33U C61U	< 1e-05 s⁻¹	< 1e-05 s⁻¹	–	–	–
G32C C34U	< 1e-05 s⁻¹	< 1e-05 s⁻¹	< 1e-05 s⁻¹	< 1e-05 s⁻¹	< 1e-05 s⁻¹
G32C G35A A42G U69A	< 1e-05 s⁻¹	< 1e-05 s⁻¹	–	–	–
G32C G35A A48U A52U U54C C67U	< 1e-05 s⁻¹	–	< 1e-05 s⁻¹	–	< 1e-05 s⁻¹
G32C G37C G41U	< 1e-05 s⁻¹	< 1e-05 s⁻¹	–	–	–
G32C G38A	< 1e-05 s⁻¹	< 1e-05 s⁻¹	–	–	–
G32C G38C G44A C70U	< 1e-05 s⁻¹	–	–	–	–
G32C G41A A52C	< 1e-05 s⁻¹	–	–	< 1e-05 s⁻¹	< 1e-05 s⁻¹
G32C G59C	< 1e-05 s⁻¹	< 1e-05 s⁻¹	–	–	–
G32C G60C	< 1e-05 s⁻¹	–	< 1e-05 s⁻¹	< 1e-05 s⁻¹	–
G32C U45C A53C G62C	< 1e-05 s⁻¹	< 1e-05 s⁻¹	–	–	–
G32U A33G A64G	< 1e-05 s⁻¹	< 1e-05 s⁻¹	–	–	–
G32U A36C A53U U54A G63U	< 1e-05 s⁻¹	< 1e-05 s⁻¹	–	–	–
G32U A39C U54A	< 1e-05 s⁻¹	–	–	–	–
G32U A53G A64U	< 1e-05 s⁻¹	–	–	–	–
G32U C50G C68G	0.00012 ± 2.5e-05 s⁻¹	9.96e-05 ± 1.7e-05 s⁻¹	–	–	–

Variant	self-cleavage kobs at 40 uM GlcN6P [1]	self-cleavage kobs at 10000 uM GlcN6P [2]	self-cleavage kobs at 640 uM GlcN6P [3]	self-cleavage kobs at 2500 uM GlcN6P [4]	self-cleavage kobs at 160 uM GlcN6P [5]
G32U G35A	< 1e-05 s⁻¹	< 1e-05 s⁻¹	< 1e-05 s⁻¹	–	–
G32U G38C U55A	< 1e-05 s⁻¹	< 1e-05 s⁻¹	< 1e-05 s⁻¹	–	–
G32U G40C	< 1e-05 s⁻¹	–	–	–	–
G32U G43U G44U G60A	< 1e-05 s⁻¹	–	< 1e-05 s⁻¹	< 1e-05 s⁻¹	–
G32U G44C	< 1e-05 s⁻¹	< 1e-05 s⁻¹	< 1e-05 s⁻¹	–	< 1e-05 s⁻¹
G32U G59U	< 1e-05 s⁻¹	–	< 1e-05 s⁻¹	–	–
G32U G59U C71U	< 1e-05 s⁻¹	–	< 1e-05 s⁻¹	–	< 1e-05 s⁻¹
G32U U45C	< 1e-05 s⁻¹	–	–	–	< 1e-05 s⁻¹
G32U U56A C61G C67A	7.99e-05 ± 3e-05 s⁻¹	–	–	–	–
A33C A36G C67G	< 1e-05 s⁻¹	–	–	–	–
A33C A52G	< 1e-05 s⁻¹	< 1e-05 s⁻¹	–	< 1e-05 s⁻¹	< 1e-05 s⁻¹
A33C A64C	< 1e-05 s⁻¹	–	–	–	–
A33C C70U	< 1e-05 s⁻¹	–	–	–	–
A33C G37A G62C	< 1e-05 s⁻¹	< 1e-05 s⁻¹	< 1e-05 s⁻¹	< 1e-05 s⁻¹	–
A33C G43C C68U	< 1e-05 s⁻¹	< 1e-05 s⁻¹	–	–	–
A33C G51A G60C	< 1e-05 s⁻¹	–	< 1e-05 s⁻¹	–	–
A33C U49C C58A	< 1e-05 s⁻¹	< 1e-05 s⁻¹	–	–	–
A33G A36G	< 1e-05 s⁻¹	< 1e-05 s⁻¹	< 1e-05 s⁻¹	< 1e-05 s⁻¹	< 1e-05 s⁻¹
A33G A36U A42U G60A C70U	< 1e-05 s⁻¹	< 1e-05 s⁻¹	–	–	–
A33G C58A	< 1e-05 s⁻¹	–	–	–	–
A33G G35U	< 1e-05 s⁻¹	–	< 1e-05 s⁻¹	–	< 1e-05 s⁻¹
A33G U45A C50G U54G G60A C67A	0.000354 ± 9.5e-05 s⁻¹	0.000164 ± 5.5e-05 s⁻¹	–	–	–

Variant	self-cleavage kobs at 40 uM GlcN6P [1]	self-cleavage kobs at 10000 uM GlcN6P [2]	self-cleavage kobs at 640 uM GlcN6P [3]	self-cleavage kobs at 2500 uM GlcN6P [4]	self-cleavage kobs at 160 uM GlcN6P [5]
A33G U49A	< 1e-05 s⁻¹	< 1e-05 s⁻¹	–	–	–
A33G U69C	< 1e-05 s⁻¹	< 1e-05 s⁻¹	–	–	–
A33U A36U G51A	< 1e-05 s⁻¹	< 1e-05 s⁻¹	–	–	–
A33U A39G U65A	< 1e-05 s⁻¹	–	–	–	–
A33U A42C U47G U54A	< 1e-05 s⁻¹	< 1e-05 s⁻¹	< 1e-05 s⁻¹	< 1e-05 s⁻¹	–
A33U C68U	< 1e-05 s⁻¹	–	–	–	–
A33U G37A A52U	< 1e-05 s⁻¹	< 1e-05 s⁻¹	–	–	–
A33U G37C G59U	< 1e-05 s⁻¹	< 1e-05 s⁻¹	–	–	–
A33U G37U C50G U69A	8.34e-05 ± 2.3e-05 s⁻¹	0.000105 ± 2.5e-05 s⁻¹	–	–	–
A33U G37U G40A G66U C68U	< 1e-05 s⁻¹	–	–	–	–
A33U G40A G41A C58A C67U	< 1e-05 s⁻¹	< 1e-05 s⁻¹	–	< 1e-05 s⁻¹	–
A33U G44C	< 1e-05 s⁻¹	< 1e-05 s⁻¹	< 1e-05 s⁻¹	< 1e-05 s⁻¹	< 1e-05 s⁻¹
A33U G60A	< 1e-05 s⁻¹	–	< 1e-05 s⁻¹	–	< 1e-05 s⁻¹
A33U G60A C71G	< 1e-05 s⁻¹	–	–	–	–
A33U U54A U56G C61U	< 1e-05 s⁻¹	< 1e-05 s⁻¹	–	–	–
C34A A36C	< 1e-05 s⁻¹	< 1e-05 s⁻¹	–	–	–
C34A A36C G40A G43U G60U C70A	< 1e-05 s⁻¹	< 1e-05 s⁻¹	–	–	–
C34A A48C	< 1e-05 s⁻¹	< 1e-05 s⁻¹	–	< 1e-05 s⁻¹	–
C34A A48G U54C G66U C68G	< 1e-05 s⁻¹	< 1e-05 s⁻¹	–	–	–
C34A A52C	< 1e-05 s⁻¹	–	–	–	–
C34A C70U	< 1e-05 s⁻¹	–	–	–	< 1e-05 s⁻¹
C34A C71U	< 1e-05 s⁻¹	–	< 1e-05 s⁻¹	< 1e-05 s⁻¹	< 1e-05 s⁻¹

Variant	self-cleavage kobs at 40 uM GlcN6P [1]	self-cleavage kobs at 10000 uM GlcN6P [2]	self-cleavage kobs at 640 uM GlcN6P [3]	self-cleavage kobs at 2500 uM GlcN6P [4]	self-cleavage kobs at 160 uM GlcN6P [5]
C34A G37C G60U	< 1e-05 s⁻¹	< 1e-05 s⁻¹	–	–	–
C34A G40C	< 1e-05 s⁻¹	< 1e-05 s⁻¹	–	–	–
C34A G40C A42C U65C	< 1e-05 s⁻¹	< 1e-05 s⁻¹	< 1e-05 s⁻¹	–	–
C34A G40C U46C	< 1e-05 s⁻¹	–	–	–	–
C34A G40U	< 1e-05 s⁻¹	< 1e-05 s⁻¹	< 1e-05 s⁻¹	< 1e-05 s⁻¹	< 1e-05 s⁻¹
C34A G43U	< 1e-05 s⁻¹	–	< 1e-05 s⁻¹	< 1e-05 s⁻¹	< 1e-05 s⁻¹
C34A G60U C68A	< 1e-05 s⁻¹	–	< 1e-05 s⁻¹	–	–
C34A U56G	< 1e-05 s⁻¹	–	< 1e-05 s⁻¹	< 1e-05 s⁻¹	< 1e-05 s⁻¹
C34G A48G	< 1e-05 s⁻¹	–	–	< 1e-05 s⁻¹	< 1e-05 s⁻¹
C34G A64C U65A	< 1e-05 s⁻¹	–	–	–	–
C34G C50U	< 1e-05 s⁻¹	–	–	–	–
C34G G35C A53U	< 1e-05 s⁻¹	–	–	–	< 1e-05 s⁻¹
C34G G41A	< 1e-05 s⁻¹	< 1e-05 s⁻¹	< 1e-05 s⁻¹	–	< 1e-05 s⁻¹
C34G G43U C67U	< 1e-05 s⁻¹	–	–	–	–
C34G U45G C70A	< 1e-05 s⁻¹	–	–	–	–
C34G U47C A52G U54C	< 1e-05 s⁻¹	–	–	–	–
C34G U54A G66A C70U	< 1e-05 s⁻¹	–	–	–	–
C34G U65A	< 1e-05 s⁻¹	< 1e-05 s⁻¹	–	< 1e-05 s⁻¹	< 1e-05 s⁻¹
C34U C61A C67G	0.00044 ± 0.00014 s⁻¹	–	0.000318 ± 0.00013 s⁻¹	–	–
C34U G43C U55A C71A	< 1e-05 s⁻¹	< 1e-05 s⁻¹	–	–	–
C34U G51U U54C U57G	< 1e-05 s⁻¹	–	–	< 1e-05 s⁻¹	–
C34U U65G	< 1e-05 s⁻¹	< 1e-05 s⁻¹	< 1e-05 s⁻¹	< 1e-05 s⁻¹	–
